This list was built around the results that the source calls inconclusive (neither active nor inactive); the mix of calls is not that of the screen. Potencies of inconclusive entries are left out as doubtful fits. The source made the active and inactive calls. Calls come from the whole dose curve; as a rule, active = well fitted inhibition curve with a large enough effect; inconclusive = small, poorly fitted or top-dose-only effect; inactive = no such curve, though single readings can be large or run the other way.
Experiment: BET inhibitor-based combinations targeting novel dependencies in MECOM-rearranged (r) AML: OCI-AML3 cell line (AID 2202232); note: nearly all actives have a fitted effect of over 35% in size;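 for viability (% of control): plate controls were DMSO vehicle wells for no effect and wells without cells for full effect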
Conditions: CellTiter-Glo luminescence, 48 h; Potency: OCI-AML3 viability; viability (% of control): at 46 µM (top of the series)
Summary of the method: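 Cells were plated at 500 per well and exposed to an 11-point dose series of each drug for 48 hr. Viability was measured by CellTiter-Glo luminescence, normalized to DMSO and empty-well controls, and summarized as AUC and per-cell-line Z-AUC.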
Potency is the fitted concentration of half-maximal effect; tags give direction and shape of the fitted curve.

Row | SMILES | Potency
1 | Cc1ccc(NC(=O)c2ccc3c(c2)OCCO3)cc1NC(=O)c1ccc2nc(OCCN3CCCC3)ccc2c1 | active: 0.257 µM
2 | O=C(O)c1nc(=O)[nH]c(=O)[nH]1 | inconclusive [inhibitor, full curve, poor fit]
3 | O=C(O)c1ccc(CCCc2ccc(OCCc3ccc(F)cc3)cc2)o1 | inconclusive [inhibitor, single point]
4 | C[C@H](NC(=O)Cc1cc(F)cc(F)c1)C(=O)N[C@@H]1C(=O)N(C)c2ccccc2-c2ccccc21 | inconclusive [inhibitor, full curve, poor fit]
5 | CC(C)C1CCC(C(=O)N[C@H](Cc2ccccc2)C(=O)O)CC1 (stereo partly specified) | inactive
6 | C[C@]12C=CC(=O)C=C1CC[C@@H]1[C@@H]2[C@@H](O)C[C@@]2(C)[C@H]1CC[C@]2(O)C(=O)CO | inactive
7 | O=c1c(-c2ccc(O)cc2)coc2c([C@@H]3O[C@H](CO)[C@@H](O)[C@H](O)[C@H]3O)c(O)ccc12 | inactive
8 | CC(C)[C@H](N)C(=O)OCCOCn1cnc2c(=O)[nH]c(N)nc21 | inactive
9 | CN(CCOc1ccc(NS(C)(=O)=O)cc1)CCc1ccc(NS(C)(=O)=O)cc1 | inactive
10 | C[C@H]1COc2c(N3CCN(C)CC3)c(F)cc3c(=O)c(C(=O)O)cn1c23 | inactive
11 | O=C(O)CCCc1c[nH]c2ccccc12 | inconclusive [inhibitor, full curve, poor fit]
12 | CC(=O)O[C@H]1C[C@@H]2CC[C@H]3[C@H]4C[C@H]([N+]5(C)CCCCC5)[C@@H](OC(C)=O)[C@@]4(C)CC[C@@H]3[C@@]2(C)C[C@H]1[N+]1(C)CCCCC1 | inactive
13 | N#Cc1ccc(N(Cc2ccc(Br)cc2)n2cnnc2)cc1 | inconclusive [inhibitor, partial curve, poor fit]
14 | Cn1c(=O)c2c(ncn2CC2OCCO2)n(C)c1=O | inactive
15 | CCc1c(C(=O)NNC(=O)[C@@H](O)c2cc(F)cc(F)c2)ccc(O)c1C | inactive
16 | CC1(C)O[C@@H]2C[C@H]3[C@@H]4CCC5=CC(=O)C=C[C@]5(C)[C@H]4[C@@H](O)C[C@]3(C)[C@]2(C(=O)CO)O1 | inactive
17 | Cc1ccccc1C(C(=O)NC1CCCCC1)N(C(=O)Cn1ccnc1C)c1cccc(F)c1 (stereo unspecified) | inconclusive [inhibitor, full curve, poor fit]
18 | CNC(=O)c1ccc2cc(C3(O)CCn4cncc43)ccc2c1 (stereo unspecified) | inactive
19 | CS(=O)(=O)Nc1ccc([N+](=O)[O-])cc1Oc1ccccc1 | inconclusive [inhibitor, partial curve, poor fit]
20 | COc1cc(CCc2cc(NC(=O)c3ccc(N4C[C@@H](C)N[C@@H](C)C4)cc3)n[nH]2)cc(OC)c1 | active: 18.6 µM
21 | CC(C)c1c(-c2ccccc2)nc2c(C#N)c[nH]n2c1=O | inactive
22 | N[C@@]1(C(=O)O)CS(=O)(=O)[C@H]2[C@H](C(=O)O)[C@H]21 | inactive
23 | Oc1ccc(C2=Cc3ccc(O)cc3OC2)cc1 | active: 0.525 µM
24 | NC(=O)C1CCCc2c1[nH]c1ccc(Cl)cc21 (stereo unspecified) | inactive
25 | CCNCCc1ccc(CN(CC)c2cc(OC)ccc2[C@@H]2CCc3cc(O)ccc3C2)cc1 | active: 6.61 µM
26 | COc1ccc(S(=O)(=O)N(CCO)c2ccccc2CN(C)C/C=C/c2ccc(Cl)cc2)cc1 | active: 14.8 µM
27 | CCCCCN=C(N)N/N=C/c1c[nH]c2ccc(OC)cc12 | active: 8.33 µM
28 | CC(C)NC(=O)N1CC[C@H](N=C2Nc3cc(F)ccc3N(CC(F)F)c3ccc(Cl)cc32)C1 | inconclusive [inhibitor, partial curve, poor fit]
29 | CC[C@H](C=C[C@@H](C)[C@H]1CC[C@H]2[C@@H]3CC=C4C[C@@H](O)CC[C@]4(C)[C@@H]3CC[C@]12C)C(C)C | inconclusive [inhibitor, partial curve, poor fit]

Experiment: BET inhibitor-based combinations targeting novel dependencies in MECOM-rearranged (r) AML: MV-4-11 cell line (AID 2202233); note: nearly all actives have a fitted effect of over 45% in size;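 for viability, % of control: plate controls were DMSO for no effect and blank wells for full effect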
Conditions: MV-4-11 AML viability, CellTiter-Glo luminescence, 48 h; viability, % of control: at 46 µM (top of the series) unless noted
Summary of the method: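 Activity is given as area under the curve and as Z-AUC, mean-centred within each cell line. It comes from 11-point dose curves normalized to DMSO and empty wells. CellTiter-Glo luminescence was read after 48 hr drug exposure of 500 cells/well.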

Row | SMILES | Potency | viability, % of control
30 | COC1CCC(N2C(=O)CNc3ncc(-c4ccc(C(C)(C)O)nc4)nc32)CC1 (stereo unspecified) | active: 3.72 µM | –
31 | CCC(C)N(C)C(=O)c1cc2ccccc2c(-c2ccccc2Cl)n1 (stereo unspecified) | inactive | –
32 | CN(C(=O)CNC(=O)/C=C/c1cccc(Cl)c1)C1CCS(=O)(=O)CC1 | inconclusive [inhibitor, full curve] | –
33 | C=CC[C@@H]1/C=C(\C)C[C@H](C)C[C@H](OC)[C@H]2O[C@@](O)(C(=O)C(=O)N3CCCC[C@H]3C(=O)O[C@H](/C(C)=C/[C@@H]3CC[C@@H](O)[C@H](OC)C3)[C@H](C)[C@@H](O)CC1=O)[C@H](C)C[C@@H]2OC | inconclusive [inhibitor, partial curve, poor fit] | –
34 | O=c1[nH]c(=O)n(C2CCCO2)cc1F (stereo unspecified) | active: 20.9 µM | –
35 | O=C(c1cncc(Br)c1)N1CCC(N2CCCC2)CC1 | inconclusive [inhibitor, single point] | –
36 | O=C(O)c1nc(=O)[nH]c(=O)[nH]1 | inactive | –
37 | O=C(O)c1ccc(CCCc2ccc(OCCc3ccc(F)cc3)cc2)o1 | inconclusive [inhibitor, partial curve, poor fit] | –
38 | C[C@]12C=CC(=O)C=C1CC[C@@H]1[C@@H]2[C@@H](O)C[C@@]2(C)[C@H]1CC[C@]2(O)C(=O)CO | inactive | –
39 | CN(CCOc1ccc(NS(C)(=O)=O)cc1)CCc1ccc(NS(C)(=O)=O)cc1 | inactive | –
40 | O=C(O)CCCc1c[nH]c2ccccc12 | inconclusive [inhibitor, partial curve, poor fit] | –
41 | CC(=O)O[C@H]1C[C@@H]2CC[C@H]3[C@H]4C[C@H]([N+]5(C)CCCCC5)[C@@H](OC(C)=O)[C@@]4(C)CC[C@@H]3[C@@]2(C)C[C@H]1[N+]1(C)CCCCC1 | inactive | –
42 | CC1(C)O[C@@H]2C[C@H]3[C@@H]4CCC5=CC(=O)C=C[C@]5(C)[C@H]4[C@@H](O)C[C@]3(C)[C@]2(C(=O)CO)O1 | inactive | –
43 | CNC(=O)c1ccc2cc(C3(O)CCn4cncc43)ccc2c1 (stereo unspecified) | inconclusive [inhibitor, partial curve, poor fit] | –
44 | CCNCCc1ccc(CN(CC)c2cc(OC)ccc2[C@@H]2CCc3cc(O)ccc3C2)cc1 | active: 5.9 µM | –
45 | CC(C)NC(=O)N1CC[C@H](N=C2Nc3cc(F)ccc3N(CC(F)F)c3ccc(Cl)cc32)C1 | – | inactive: 94.7% [at 8.46 µM]
46 | CC[C@H](C=C[C@@H](C)[C@H]1CC[C@H]2[C@@H]3CC=C4C[C@@H](O)CC[C@]4(C)[C@@H]3CC[C@]12C)C(C)C | inactive | –
